Measurements as given in the supplement of paper PMC4967469.

How the values were obtained:
Assay in all cases: Viability of human cancer cell lines after 72 h of drug (GDSC screen)
MLN4924 = compound: NS(=O)(=O)OC[C@@H]1C[C@@H](n2ccc3c(N[C@H]4CCc5ccccc54)ncnc32)C[C@@H]1O [MLN4924]; details: top dose 1 µM; top dose inferred
Procedure: (§1)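 Human cancer cell lines in 384-well plates, medium with 10% serum, drug for 72 h over a 256-fold dose range (nine 2-fold or five 4-fold steps up to the top dose). Adherent lines were fixed and stained with the nucleic acid dye Syto60, suspension lines read with resazurin; signal relative to control wells, capped at 0 and 100%. One two-parameter sigmoid per drug and line, fitted in a mixed model over all curves with the slope shared within a line.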

BMN-673 = compound: Cn1ncnc1[C@H]1c2n[nH]c(=O)c3cc(F)cc(c23)N[C@@H]1c1ccc(F)cc1 [BMN-673]; details: top dose 10 µM; top dose inferred
Procedure: as §1

XMD11-85h = compound: COc1cc(C(=O)NC2CCN(C)CC2)ccc1Nc1ncc2c(n1)N(C1CCCC1)CCC(=O)N2C(C)C [XMD11-85h]; details: top dose 10 µM; top dose inferred
Procedure: as §1

AZD6482 = compound: Cc1cc([C@@H](C)Nc2ccccc2C(=O)O)c2nc(N3CCOCC3)cc(=O)n2c1 [AZD6482]
Procedure: as §1

[1] = top dose 5 µM, screen: GDSC drug entry 1066, top dose inferred
[2] = top dose 5.12 µM, screen: GDSC drug entry 156

Cell Line | AUC (MLN4924) | IC50 (MLN4924) | AUC (BMN-673) | IC50 (BMN-673) | AUC (XMD11-85h) | IC50 (XMD11-85h) | AUC (AZD6482; [1]) | IC50 (AZD6482; [1]) | AUC (AZD6482; [2]) | IC50 (AZD6482; [2])
NMC-G1 (glioma, adherent) | 0.867 | > 1 µM | 0.631 | 1.57 µM | 0.96 | > 10 µM | 0.899 | > 5 µM | 0.878 | > 5.12 µM
NTERA-2 cl.D1 (testis, adherent) | 0.894 | > 1 µM | 0.094 | < 0.0391 µM | 0.896 | > 10 µM | 0.812 | 2.64 µM | 0.749 | 1.65 µM
OCI-AML5 (acute myeloid leukaemia, suspension) | 0.807 | 0.46 µM | 0.91 | > 10 µM | 0.988 | > 10 µM | 0.94 | > 5 µM | 0.898 | > 5.12 µM
OCI-LY-19 (B-cell lymphoma, suspension) | 0.973 | > 1 µM | 0.711 | 2.32 µM | 0.973 | > 10 µM | 0.927 | > 5 µM | 0.869 | 4.12 µM
OCUB-M (breast, adherent) | 0.729 | 0.251 µM | 0.884 | 8.29 µM | 0.985 | > 10 µM | 0.641 | 0.721 µM | 0.735 | 1.34 µM
ONS-76 (medulloblastoma, adherent) | 0.698 | 0.237 µM | 0.714 | 2.65 µM | 0.964 | > 10 µM | 0.973 | > 5 µM | 0.92 | > 5.12 µM
OS-RC-2 (kidney, adherent) | 0.726 | 0.374 µM | 0.866 | > 10 µM | 0.927 | > 10 µM | 0.866 | > 5 µM | 0.579 | 0.579 µM
OV-17R (ovary, adherent) | 0.974 | > 1 µM | 0.784 | 6.18 µM | 0.939 | > 10 µM | 0.941 | > 5 µM |  | 
OVCA420 (ovary, adherent) | 0.95 | > 1 µM | 0.946 | > 10 µM | 0.899 | > 10 µM | 0.933 | > 5 µM |  | 
OVCAR-3 (ovary, adherent) | 0.852 | 0.903 µM | 0.888 | > 10 µM | 0.966 | > 10 µM | 0.777 | 2.23 µM | 0.57 | 0.506 µM
OVCAR-4 (ovary, adherent) | 0.913 | > 1 µM | 0.813 | 9.18 µM | 0.952 | > 10 µM | 0.836 | > 5 µM | 0.833 | > 5.12 µM
OVISE (ovary, adherent) | 0.926 | > 1 µM | 0.884 | > 10 µM | 0.874 | > 10 µM | 0.898 | > 5 µM | 0.917 | > 5.12 µM
OVK-18 (ovary, adherent) | 0.881 | > 1 µM | 0.864 | > 10 µM | 0.963 | > 10 µM | 0.832 | 3.69 µM |  | 
PC-14 (lung adenocarcinoma, adherent) | 0.938 | > 1 µM | 0.744 | 2.85 µM | 0.948 | > 10 µM | 0.972 | > 5 µM | 0.986 | > 5.12 µM
PL-21 (acute myeloid leukaemia, suspension) | 0.882 | > 1 µM | 0.98 | > 10 µM | 0.919 | > 10 µM |  |  | 0.821 | 3.63 µM
PWR-1E (prostate, adherent) | 0.688 | 0.21 µM | 0.705 | 2.36 µM | 0.986 | > 10 µM | 0.905 | > 5 µM |  | 
RC-K8 (B-cell lymphoma, suspension) | 0.977 | > 1 µM | 0.993 | > 10 µM | 0.992 | > 10 µM | 0.991 | > 5 µM | 0.993 | > 5.12 µM
RERF-LC-MS (lung adenocarcinoma, adherent) | 0.851 | 0.797 µM | 0.842 | 7.3 µM | 0.954 | > 10 µM | 0.787 | 2.23 µM | 0.987 | > 5.12 µM
RERF-LC-Sq1 (lung squamous cell carcinoma, adherent) | 0.798 | 0.761 µM | 0.929 | > 10 µM | 0.909 | > 10 µM | 0.968 | > 5 µM | 0.979 | > 5.12 µM
RKN (ovary, adherent) | 0.73 | 0.295 µM | 0.637 | 1.53 µM | 0.978 | > 10 µM | 0.859 | 4.54 µM | 0.943 | > 5.12 µM
RKO (large intestine, adherent) | 0.475 | 0.0538 µM | 0.816 | 5.03 µM | 0.962 | > 10 µM | 0.842 | 3.15 µM | 0.812 | 2.5 µM
RL (B-cell lymphoma, suspension) | 0.989 | > 1 µM | 0.989 | > 10 µM | 0.94 | > 10 µM | 0.983 | > 5 µM | 0.99 | > 5.12 µM
RO82-W-1 (thyroid, adherent) | 0.942 | > 1 µM | 0.853 | > 10 µM | 0.966 | > 10 µM | 0.859 | > 5 µM | 0.957 | > 5.12 µM
RPMI-8402 (T-cell lymphoblastic leukaemia, suspension) | 0.862 | 0.642 µM | 0.585 | 1.02 µM | 0.852 | 5.88 µM | 0.94 | > 5 µM | 0.913 | > 5.12 µM
RPMI-8866 (chronic myeloid leukaemia, suspension) | 0.625 | 0.135 µM | 0.94 | > 10 µM | 0.913 | > 10 µM | 0.615 | 0.631 µM | 0.988 | > 5.12 µM

A lower IC50 marks a more sensitive line; a fit beyond the top or the lowest dose is shown as a bound at that dose. AUC, from the same fit, is the share of area under the viability curve across the 256-fold dose range; values near 1 show little effect. Any top dose called inferred comes from the curve model; the source does not state it. For part of these data: Where an entry number is given, a second screen of the drug exists; the two often differ.
